Results from the supplement of paper PMC3724861.
This is one part of the list.

test system: T1, Caupolican (Caup) homeodomain DNA-binding domain; experiment: PBM E-score (8-mer, recovered from the published 9-mer minima) (E-score (dimensionless, -0.5 to 0.5)); Drosophila protein; higher = stronger relative binding preference, active = 0.31 or more
T1 sequence: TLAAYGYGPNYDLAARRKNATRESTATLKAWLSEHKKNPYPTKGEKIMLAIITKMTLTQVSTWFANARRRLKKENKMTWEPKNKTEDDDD
Procedure, shortened: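 An enrichment score, with higher meaning stronger, expresses relative binding preference for each short DNA word. The protein used was Caup's homeodomain DNA-binding domain (residues 214-303), produced by in vitro transcription and translation and tested at 100 nM on custom-designed protein binding microarrays. The 8-mer values were recovered from published 9-mer scores, each equal to the lower of its two constituent 8-mer scores.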

Sequence | PBM E-score
CCGGGGCG | inactive: -0.349
ATTCTTTA | inactive: 0.113
GCCATGCA | inactive: -0.0297
GCCGTAAA | inactive: -0.0841
TATCCGGA | inactive: -0.0225
CCACAACG | inactive: -0.15
AGATGACA | inactive: 0.227
TCATCTAA | inactive: -0.0247
GGAGAAAA | inactive: -0.0683
AGTCATAA | inactive: 0.146
CTGGGAAA | inactive: -0.0784
CAGAGCTG | inactive: -0.0267
AATCAGAC | inactive: 0.112
CACCGTCA | inactive: -0.136
GTATCTCA | inactive: 0.125
GCGCGCTA | ≥ -0.0022
AGATTGCG | inactive: -0.0689
AAGGTCGA | inactive: 0.012
GGTAGTAA | inactive: 0.115
GGTCGAAC | inactive: 0.0473
GGATCAGA | inactive: -0.024
AATACCAA | inactive: 0.118
GATTAAGA | inactive: 0.0784
AACTAATC | inactive: 0.116
CGGCACCA | inactive: -0.123

Sequence | PBM E-score
GAGACGGC | inactive: -0.143
CTATGTAC | active: 0.381
AACTGACA | inactive: 0.229
GAAGCTTA | inactive: -0.0166
AATATATC | inactive: 0.172
ATTACCAC | inactive: 0.144
AGGAAAAT | inactive: 0.00243
TCTTTTCA | inactive: -0.0323
GAACGGTC | inactive: -0.153
ACGCTCCC | inactive: -0.0801
AAGCCATA | inactive: 0.0203
GGCTTTAC | inactive: -0.00926
ACCGGAGT | inactive: -0.106
GTGTACAA | active: 0.396
GACCACTA | inactive: 0.0147
CTCTATGA | inactive: -0.0639
AGGAGAAA | inactive: 0.0158
AATAGACA | inactive: 0.296
AAATTGCG | inactive: 0.00698
GAATAACA | inactive: 0.301
CTCTTAGC | inactive: -0.113
ATGAACTC | inactive: -0.0241
ATCAGTCA | ≥ 0.114
CAGTGCCA | inactive: -0.127
ATCTAGAT | inactive: 0.0185

Sequence | PBM E-score
ACAAGTCC | inactive: 0.229
AGGTTTGG | inactive: -0.107
GAAGGGTC | inactive: -0.17
GCCCTTAA | inactive: -0.119
AGATAGTA | inactive: 0.155
GGGAGCCA | inactive: -0.294
CGACATCA | inactive: 0.284
AGCGGCGC | inactive: -0.208
AAAGCCGG | inactive: -0.127
CACTCGTC | inactive: -0.0183
AGACATAT | inactive: 0.264
GTGATCCA | inactive: -0.0252
GAACTACA | active: 0.314
ACAAGTCT | inactive: 0.296
TATCGACA | inactive: 0.142
ATAAGTTC | inactive: 0.107
CCCGACGG | inactive: -0.206
CATCACAA | inactive: 0.178
TATCGCCA | inactive: -0.0216
AGCGGTCC | inactive: -0.13
AATGCCTG | inactive: -0.0623
TACGTGAA | inactive: 0.0545
CTAAGGGA | inactive: -0.0661
CTACTCAG | inactive: -0.0389
GCGGCCTA | inactive: -0.275

Sequence | PBM E-score
AAAATTAA | inactive: 0.0601
CTTTCACA | inactive: 0.0496
AACAAGAG | inactive: 0.243
CATGCCAC | inactive: 0.0331
CACGTAAC | inactive: 0.057
AGTATGTG | inactive: 0.159
GCCGCTAC | inactive: -0.24
GAACGGCA | inactive: -0.0341
CAGCACGA | inactive: 0.0476
GTTAAATA | inactive: 0.232
ACCATCAT | inactive: 0.0686
AAGCTGTG | inactive: 0.00524
ATGAGCTA | inactive: 0.00817
GGGATTTA | inactive: -0.0562
CTAACCCA | inactive: -0.0966
TGTTGAAA | inactive: 0.189
CTTTAGGA | inactive: -0.0248
CGGCCCCC | inactive: -0.29
ATGTAGTA | active: 0.372
ATCAGCTC | inactive: 0.00528
GCACTGAA | inactive: 0.021
TAAGTCTA | inactive: 0.0325
ACGGGATC | inactive: -0.00327
TCCACCCA | inactive: -0.071
GAGAGTCA | inactive: -0.0427

Sequence | PBM E-score
TGTGAGAA | inactive: 0.0904
AGTCCCAA | inactive: -0.095
CGGAGTTC | inactive: -0.0275
AATTGTGA | inactive: 0.148
CGAGGTTC | inactive: -0.0575
AGGTTACC | inactive: -0.0352
ATGAAACC | inactive: 0.108
AACCTTTG | inactive: 0.0184
AAGCGTCA | ≥ 0.00475
GGTTAACC | inactive: -0.115
GGCCGCCC | inactive: -0.285
CGATTCCA | inactive: -0.0588
AACATTCC | inactive: 0.148
ATTCGGCA | inactive: 0.0146
CATCAAGC | inactive: -0.0243
AGTCCAGC | inactive: -0.162
AATCCTAC | inactive: 0.035
ATTGGGTC | inactive: -0.117
GTTGAGTA | inactive: 0.128
ACCGCTCG | inactive: -0.0508
CTAGCTAA | inactive: -0.0321
AGCGCGAC | inactive: -0.0305
CCCAGAAC | inactive: -0.0251
ATTTCTAA | inactive: -0.0178
AGTCTTAA | inactive: 0.0528

Sequence | PBM E-score
CCATAACA | inactive: 0.16
CCGCGAGA | inactive: -0.141
CGAGTCAC | inactive: -0.0968
GCGGGTTA | inactive: -0.0797
TCGTATCA | inactive: 0.142
GAGCGCAA | inactive: -0.179
GAAGGATA | inactive: 0.0415
AGCAGAAG | inactive: -0.0802
ACAGGCGC | inactive: -0.0681
GACGTAAC | inactive: 0.1
AGATTGAC | inactive: 0.0835
GTGTAGGA | ≥ 0.18
CGTTTGAC | inactive: -0.0145
AAATTATC | inactive: 0.17
AGAGGTAT | inactive: 0.109
ACGGTTAA | inactive: 0.0213
ATGATCGG | inactive: 0.0469
GTGTATGA | inactive: 0.249
ATTTATGA | inactive: 0.116
ATCCTTTA | inactive: -0.00489
AATCTGCA | inactive: 0.0568
CACAAGTG | inactive: 0.111
CACGCGAA | inactive: 0.0497
TAGGCTAA | inactive: -0.0807
GTAGTGAA | inactive: 0.0491

Sequence | PBM E-score
CCAGCACA | inactive: 0.00587
CGCTCCGC | inactive: -0.304
AACCAAAA | inactive: 0.0181
CAGTTCAA | inactive: -0.0476
ACCCAGGA | inactive: -0.0367
ATTTCTAG | inactive: -0.0585
CCCACATA | inactive: -0.00819
TCTTTGAA | inactive: -0.0406
CACTATCA | inactive: 0.0598
GAACAAAA | inactive: 0.152
ACGTGGAT | inactive: 0.00531
ACCCCAAC | inactive: -0.0209
ACGCAGTG | inactive: -0.145
ACCTAGGC | inactive: -0.163
CATCAGTC | inactive: 0.00717
CCGAATAG | inactive: -0.0479
CCCCCTCA | inactive: -0.278
CATAGGGA | inactive: -0.0374
CTCTAAGC | inactive: -0.0374
GCTGTGTA | inactive: 0.168
ACAAAGAC | inactive: 0.1
ATACAAAA | ≥ 0.284
ACACTTTC | inactive: 0.115
GCACGTAC | inactive: -0.0214
ACTCTGCT | inactive: -0.114

Sequence | PBM E-score
CCACACTC | inactive: -0.162
ATGCGAGC | inactive: -0.17
ATGTCTCA | inactive: 0.19
CCCGTATA | inactive: -0.0295
AAATTGAC | inactive: 0.0814
CCTTTTAG | inactive: -0.0522
ATATATAA | inactive: 0.23
ACGCTATA | inactive: 0.0501
AGTTACTC | inactive: 0.0496
ATATTTTG | inactive: 0.139
ACTGTGTA | inactive: 0.258
AGTGGGGA | inactive: -0.103
AAGCTCTC | inactive: -0.218
TCCTACGA | inactive: 0.0204
TTCCCGAA | inactive: -0.00574
CGACCAGC | inactive: -0.0511
GAGTCACA | inactive: 0.0438
ACACCGGT | ≥ 0.0793
ACATGGAA | inactive: 0.296
CCACAACA | inactive: 0.142
CTAGGCAG | inactive: -0.125
AATTCCTA | ≥ 0.125
ACATTATC | inactive: 0.29
CGTACCCC | inactive: -0.0819
ACAAAGAT | inactive: 0.14

Sequence | PBM E-score
AGGCTGTA | ≥ 0.155
ATCCTCTC | inactive: -0.147
GGGAGGCA | inactive: -0.258
GTCGCAAA | inactive: 0.0754
GCACATCC | inactive: 0.0148
AGTCATAC | inactive: 0.0989
ACCCTACG | inactive: -0.0463
ACCGGGAT | inactive: -0.107
CGTTCCGA | inactive: -0.0342
TAACCAGA | ≥ 0.173
ACTGCCAT | ≥ 0.0316
CGCTCCTC | inactive: -0.251
CTCCAGTA | inactive: -0.0222
ACAATATA | inactive: 0.245
ATGTACAA | active: 0.453
ACGGTACC | inactive: -0.0159
AGTCTCTC | inactive: -0.171
GTCTCGAA | inactive: 0.0226
AAACAATA | inactive: 0.181
ACGCTGCC | inactive: -0.12
ATTGGCAG | inactive: 0.00119
TATCTTGA | inactive: 0.0977
CAGCAAAG | inactive: -0.0915
GCCGTTCC | inactive: -0.0568
